According to the supplement of paper PMC10369915:
Some of the results follow. No stated cut-off is given here; in the data, active = 3.2 or more and inactive = the rest. Only a few entries rise above the background.

These binders were tested against SHP2 C-SH2 domain E139D (assay: enrichment score (SH2-bound / input frequency) (ratio); bacterial display of known human phosphotyrosine sites (pTyr-Var adds point mutants) read by sequencing; higher = stronger binding; tyrosines were phosphorylated by kinases first). Details: peptide library: Human pTyr.
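Further: displayed peptides selected on beads carrying the immobilized SH2 domain, with library peptides lacking any tyrosine serving as negative controls.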

| Binder | enrichment score |
| --- | --- |
| GMSEEVTYATLTFQD [CL12B_HUMAN_7] | active: 6.61 |
| GGPEPGPYAQPSVNT [CRK_HUMAN_221] | inactive: 0.469 |
| ASGCRVLYDACPKSL [CELR3_HUMAN_2126] | inactive: 0.799 |
| AEIGVGAYGTVYKAR [CDK4_HUMAN_17] | inactive: 1.09 |
| GGQAGEVYVGVWKKA [ABL2_HUMAN_303_YA] | inactive: 0.936 |
| KLQLDNQYAVLENQK [CDV3_HUMAN_244] | inactive: 1.54 |
| ASLPSQKYPGPQAEG [CMGA_HUMAN_194] | inactive: 0.722 |
| EGTAGVVYKARNKLT [CDK2_HUMAN_19_YA] | inactive: 0.662 |
| AASYGRIYAGGGTGS [CELR3_HUMAN_3051] | inactive: 0.593 |
| EGTAGVVYKGRHKTT [CDK1_HUMAN_19_YA] | inactive: 0.633 |
| EKIGEGTYGVVYKGR [CDK1_HUMAN_15] | inactive: 0.892 |
| AEIGVGAYGTVAKAR [CDK4_HUMAN_17_YA] | inactive: 0.731 |
| ASNGNLLYIGFRGLD [CHRNA7_HUMAN_386] | inactive: 1.56 |
| DEEIELAYEQVAKAL [CLIC1_HUMAN_233] | inactive: 0.91 |
| GEMDTTSYDVSVLNS [CDH5_HUMAN_658] | inactive: 0.648 |
| EKIGEGTYGVVAKAR [CDK2_HUMAN_15_YA] | inactive: 0.687 |
| SLEKHSWYHGPVSRS [ABL2_HUMAN_174] | inactive: 0.98 |
| KILEEVRYIANRFRC [CHRNA7_HUMAN_442] | inactive: 2.06 |

These binders were tested against SHP2 C-SH2 domain wild-type in the same assay as above. Details: peptide library: Human pTyr.

| Binder | enrichment score |
| --- | --- |
| GMSEEVTYATLTFQD [CL12B_HUMAN_7] | active: 9.7 |
| GGPEPGPYAQPSVNT [CRK_HUMAN_221] | inactive: 0.42 |
| ASGCRVLYDACPKSL [CELR3_HUMAN_2126] | inactive: 0.966 |
| AEIGVGAYGTVYKAR [CDK4_HUMAN_17] | inactive: 1.2 |
| GGQAGEVYVGVWKKA [ABL2_HUMAN_303_YA] | inactive: 0.573 |
| KLQLDNQYAVLENQK [CDV3_HUMAN_244] | active: 3.63 |
| ASLPSQKYPGPQAEG [CMGA_HUMAN_194] | inactive: 0.687 |
| EGTAGVVYKARNKLT [CDK2_HUMAN_19_YA] | inactive: 0.697 |
| AASYGRIYAGGGTGS [CELR3_HUMAN_3051] | inactive: 0.305 |
| EGTAGVVYKGRHKTT [CDK1_HUMAN_19_YA] | inactive: 0.711 |
| EKIGEGTYGVVYKGR [CDK1_HUMAN_15] | inactive: 0.826 |
| AEIGVGAYGTVAKAR [CDK4_HUMAN_17_YA] | inactive: 0.755 |
| ASNGNLLYIGFRGLD [CHRNA7_HUMAN_386] | inactive: 1.14 |
| DEEIELAYEQVAKAL [CLIC1_HUMAN_233] | inactive: 0.781 |
| GEMDTTSYDVSVLNS [CDH5_HUMAN_658] | inactive: 0.513 |
| EKIGEGTYGVVAKAR [CDK2_HUMAN_15_YA] | inactive: 0.606 |
| SLEKHSWYHGPVSRS [ABL2_HUMAN_174] | inactive: 1.64 |
| KILEEVRYIANRFRC [CHRNA7_HUMAN_442] | inactive: 2.34 |

Each binder was assayed against SHP2 N-SH2 domain L43F in the same assay as above. Details: peptide library: Human pTyr.

| Binder | enrichment score |
| --- | --- |
| GMSEEVTYATLTFQD [CL12B_HUMAN_7] | active: 11.1 |
| GGPEPGPYAQPSVNT [CRK_HUMAN_221] | inactive: 0.566 |
| ASGCRVLYDACPKSL [CELR3_HUMAN_2126] | inactive: 0.785 |
| AEIGVGAYGTVYKAR [CDK4_HUMAN_17] | inactive: 1.12 |
| GGQAGEVYVGVWKKA [ABL2_HUMAN_303_YA] | inactive: 0.766 |
| KLQLDNQYAVLENQK [CDV3_HUMAN_244] | inactive: 0.955 |
| ASLPSQKYPGPQAEG [CMGA_HUMAN_194] | inactive: 0.561 |
| EGTAGVVYKARNKLT [CDK2_HUMAN_19_YA] | inactive: 0.593 |
| AASYGRIYAGGGTGS [CELR3_HUMAN_3051] | inactive: 0.381 |
| EGTAGVVYKGRHKTT [CDK1_HUMAN_19_YA] | inactive: 0.686 |
| EKIGEGTYGVVYKGR [CDK1_HUMAN_15] | inactive: 0.754 |
| AEIGVGAYGTVAKAR [CDK4_HUMAN_17_YA] | inactive: 0.94 |
| ASNGNLLYIGFRGLD [CHRNA7_HUMAN_386] | inactive: 1.22 |
| DEEIELAYEQVAKAL [CLIC1_HUMAN_233] | inactive: 0.805 |
| GEMDTTSYDVSVLNS [CDH5_HUMAN_658] | inactive: 0.74 |
| EKIGEGTYGVVAKAR [CDK2_HUMAN_15_YA] | inactive: 0.651 |
| SLEKHSWYHGPVSRS [ABL2_HUMAN_174] | inactive: 1.07 |
| KILEEVRYIANRFRC [CHRNA7_HUMAN_442] | inactive: 2.08 |

These binders were tested against SHP2 N-SH2 domain T42A in the same assay as above. Details: peptide library: Human pTyr.

| Binder | enrichment score |
| --- | --- |
| GMSEEVTYATLTFQD [CL12B_HUMAN_7] | active: 8.76 |
| GGPEPGPYAQPSVNT [CRK_HUMAN_221] | inactive: 0.543 |
| ASGCRVLYDACPKSL [CELR3_HUMAN_2126] | inactive: 1.03 |
| AEIGVGAYGTVYKAR [CDK4_HUMAN_17] | inactive: 0.837 |
| GGQAGEVYVGVWKKA [ABL2_HUMAN_303_YA] | inactive: 0.665 |
| KLQLDNQYAVLENQK [CDV3_HUMAN_244] | inactive: 1.81 |
| ASLPSQKYPGPQAEG [CMGA_HUMAN_194] | inactive: 0.653 |
| EGTAGVVYKARNKLT [CDK2_HUMAN_19_YA] | inactive: 0.623 |
| AASYGRIYAGGGTGS [CELR3_HUMAN_3051] | inactive: 0.337 |
| EGTAGVVYKGRHKTT [CDK1_HUMAN_19_YA] | inactive: 0.638 |
| EKIGEGTYGVVYKGR [CDK1_HUMAN_15] | inactive: 0.717 |
| AEIGVGAYGTVAKAR [CDK4_HUMAN_17_YA] | inactive: 0.817 |
| ASNGNLLYIGFRGLD [CHRNA7_HUMAN_386] | inactive: 1.31 |
| DEEIELAYEQVAKAL [CLIC1_HUMAN_233] | inactive: 0.804 |
| GEMDTTSYDVSVLNS [CDH5_HUMAN_658] | inactive: 0.502 |
| EKIGEGTYGVVAKAR [CDK2_HUMAN_15_YA] | inactive: 0.817 |
| SLEKHSWYHGPVSRS [ABL2_HUMAN_174] | inactive: 0.793 |
| KILEEVRYIANRFRC [CHRNA7_HUMAN_442] | inactive: 1.96 |

Each binder was assayed against SHP2 N-SH2 domain T52S in the same assay as above. Details: peptide library: Human pTyr.

| Binder | enrichment score |
| --- | --- |
| GMSEEVTYATLTFQD [CL12B_HUMAN_7] | active: 7.49 |
| GGPEPGPYAQPSVNT [CRK_HUMAN_221] | inactive: 0.484 |
| ASGCRVLYDACPKSL [CELR3_HUMAN_2126] | inactive: 0.82 |
| AEIGVGAYGTVYKAR [CDK4_HUMAN_17] | inactive: 1.1 |
| GGQAGEVYVGVWKKA [ABL2_HUMAN_303_YA] | inactive: 0.982 |
| KLQLDNQYAVLENQK [CDV3_HUMAN_244] | inactive: 0.972 |
| ASLPSQKYPGPQAEG [CMGA_HUMAN_194] | inactive: 0.729 |
| EGTAGVVYKARNKLT [CDK2_HUMAN_19_YA] | inactive: 0.643 |
| AASYGRIYAGGGTGS [CELR3_HUMAN_3051] | inactive: 0.4 |
| EGTAGVVYKGRHKTT [CDK1_HUMAN_19_YA] | inactive: 0.813 |
| EKIGEGTYGVVYKGR [CDK1_HUMAN_15] | inactive: 0.698 |
| AEIGVGAYGTVAKAR [CDK4_HUMAN_17_YA] | inactive: 0.741 |
| ASNGNLLYIGFRGLD [CHRNA7_HUMAN_386] | inactive: 1.39 |
| DEEIELAYEQVAKAL [CLIC1_HUMAN_233] | inactive: 0.816 |
| GEMDTTSYDVSVLNS [CDH5_HUMAN_658] | inactive: 0.653 |
| EKIGEGTYGVVAKAR [CDK2_HUMAN_15_YA] | inactive: 0.747 |
| SLEKHSWYHGPVSRS [ABL2_HUMAN_174] | inactive: 0.941 |
| KILEEVRYIANRFRC [CHRNA7_HUMAN_442] | inactive: 2.03 |

These binders were tested against SHP2 N-SH2 domain wild-type in the same assay as above. Details: peptide library: Human pTyr.

| Binder | enrichment score |
| --- | --- |
| GMSEEVTYATLTFQD [CL12B_HUMAN_7] | active: 4.63 |
| GGPEPGPYAQPSVNT [CRK_HUMAN_221] | inactive: 0.659 |
| ASGCRVLYDACPKSL [CELR3_HUMAN_2126] | inactive: 0.784 |
| AEIGVGAYGTVYKAR [CDK4_HUMAN_17] | inactive: 0.813 |
| GGQAGEVYVGVWKKA [ABL2_HUMAN_303_YA] | inactive: 0.64 |
| KLQLDNQYAVLENQK [CDV3_HUMAN_244] | inactive: 0.887 |
| ASLPSQKYPGPQAEG [CMGA_HUMAN_194] | inactive: 0.793 |
| EGTAGVVYKARNKLT [CDK2_HUMAN_19_YA] | inactive: 0.539 |
| AASYGRIYAGGGTGS [CELR3_HUMAN_3051] | inactive: 0.365 |
| EGTAGVVYKGRHKTT [CDK1_HUMAN_19_YA] | inactive: 0.734 |
| EKIGEGTYGVVYKGR [CDK1_HUMAN_15] | inactive: 0.757 |
| AEIGVGAYGTVAKAR [CDK4_HUMAN_17_YA] | inactive: 0.771 |
| ASNGNLLYIGFRGLD [CHRNA7_HUMAN_386] | inactive: 1.45 |
| DEEIELAYEQVAKAL [CLIC1_HUMAN_233] | inactive: 1.19 |
| GEMDTTSYDVSVLNS [CDH5_HUMAN_658] | inactive: 0.635 |
| EKIGEGTYGVVAKAR [CDK2_HUMAN_15_YA] | inactive: 0.757 |
| SLEKHSWYHGPVSRS [ABL2_HUMAN_174] | inactive: 1.4 |
| KILEEVRYIANRFRC [CHRNA7_HUMAN_442] | inactive: 2.64 |
